Laboratory results published in PubChem BioAssay AID1460 (National Center for Advancing Translational Sciences (NCATS), 2008).
Values joined by “and” are separate entries in the source; they are usually repeats but may differ in a detail not shown here. Equal values may be shown once. Hit rate of the full screen: of about 270,000 compounds, about 5,800 (2.1%) were called active. This list was built around the results that the source calls inconclusive (neither active nor inactive); the mix of calls is not that of the screen. Calls come from the whole dose curve; as a rule, active = well fitted inhibition curve with a large enough effect; inconclusive = small, poorly fitted or top-dose-only effect; inactive = flat fitted curve, though single readings scatter. Where the call is inconclusive, the potency comes from a doubtful curve fit.

What follows are compounds tested against Microtubule-associated protein tau (Homo sapiens) (UniProt P10636) (assay: qHTS for Inhibitors of Tau Fibril Formation, Thioflavin T Binding). Conditions: recombinant tau K18 P301L (four-repeat tau fragment), heparin-induced fibrillization, ThT fluorescence; series mostly up to 57.4 µM.
Chain of UniProt P10636 (P10636 whole entry, looked up, the tested form may be a part): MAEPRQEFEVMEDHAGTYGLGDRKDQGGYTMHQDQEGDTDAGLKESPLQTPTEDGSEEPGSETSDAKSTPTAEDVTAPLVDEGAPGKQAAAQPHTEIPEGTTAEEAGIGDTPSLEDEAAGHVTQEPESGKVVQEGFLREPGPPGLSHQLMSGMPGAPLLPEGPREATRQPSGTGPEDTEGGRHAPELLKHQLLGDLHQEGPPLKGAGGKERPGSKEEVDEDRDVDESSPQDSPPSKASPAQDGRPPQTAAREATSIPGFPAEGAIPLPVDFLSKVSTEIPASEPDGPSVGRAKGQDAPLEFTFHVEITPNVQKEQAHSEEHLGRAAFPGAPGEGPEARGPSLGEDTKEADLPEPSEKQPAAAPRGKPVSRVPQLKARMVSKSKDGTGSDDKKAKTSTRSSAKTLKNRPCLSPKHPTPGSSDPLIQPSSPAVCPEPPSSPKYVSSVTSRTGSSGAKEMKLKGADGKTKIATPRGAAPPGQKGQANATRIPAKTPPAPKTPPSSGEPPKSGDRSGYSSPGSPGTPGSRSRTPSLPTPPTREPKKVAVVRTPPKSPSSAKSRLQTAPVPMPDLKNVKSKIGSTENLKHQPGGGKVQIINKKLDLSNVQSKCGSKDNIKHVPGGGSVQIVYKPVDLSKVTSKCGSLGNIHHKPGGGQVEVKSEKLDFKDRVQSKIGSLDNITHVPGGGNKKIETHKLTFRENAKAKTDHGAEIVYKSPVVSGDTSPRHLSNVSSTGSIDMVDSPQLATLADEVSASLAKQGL
Method in brief: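 Heparin-induced (20 uM) aggregation of recombinant human K18 P301L tau, 15 uM unlabeled with 0.24 uM labeled, pH 7 acetate buffer, 6 hr at 37 C with compound. Fibrils quantified by 30 uM ThT fluorescence after 1 hr ambient incubation.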
% is set by controls: 0 for no effect and ±100 for the full control effect; potency is the fitted concentration of half-maximal effect; tags give direction and shape of the fitted curve.
Note: nearly all actives have a fitted effect of over 55% in size.

SMILES | Potency | activity, negative = inhibition
COCCn1c(SCc2nc3scc(-c4ccc(Cl)cc4)c3c(=O)[nH]2)nnc1-c1cccc(C)c1 | inconclusive: 11.2 µM [inhibitor, partial curve] | 
CC(C)C(NS(=O)(=O)c1cccc2nsnc12)C(=O)Nc1nc2ccc(Cl)cc2s1 (stereo not drawn) | inactive | 
O=C(Nc1ccc2c(c1)OCO2)NC1(C(F)(F)F)Oc2ccccc2O1 | inconclusive: 28.2 µM [inhibitor, partial curve] | 
COc1ccc(NC(=S)Nc2ccc(OCc3ccccc3)cc2)cc1OC | inconclusive: 14.1 µM [inhibitor, partial curve] | 
O=C(COc1ccccc1Cl)c1ccc[nH]1 | inconclusive: 17.8 µM [inhibitor, single point] | 
COC(=O)CC[C@@H](C)[C@H]1CC[C@H]2[C@@H]3CC[C@@H]4C[C@H](O)CC[C@]4(C)[C@H]3C[C@H](O)[C@]12C | inconclusive: 39.8 µM [inhibitor, single point] | 
CCCCOc1cccc(C2c3c(-c4cc(C)ccc4O)n[nH]c3C(=O)N2CCOC)c1 (stereo not drawn) | inactive | 
CCN(Cc1ccccc1)S(=O)(=O)c1ccc2c(c1)NC(=O)CC(=O)N2 | inactive | 
CS(=O)(=O)c1ccc2nc(NC(=O)c3ccc(S(=O)(=O)NCC4CCCO4)cc3)sc2c1 (stereo not drawn) | inactive | 
CCOc1ccc2nc(NC3=NC(C)(C)C=C(C)N3)nc(C)c2c1 | inconclusive: 14.1 µM [inhibitor, partial curve] | 
CCCC(=O)N1CCN(c2nc(CC(C)C)c3c(c2C#N)CCC3)CC1 | inconclusive: 28.2 µM [inhibitor, single point] | 
CCOC(=O)c1c(C)nc2sc3c(c2c1-c1ccc(OC)cc1)NC(c1ccccc1)NC3=O (stereo not drawn) | inactive | 
COC(=O)CSc1ccc(C#N)c(SCC(=O)OC)c1 | inconclusive: 5.01 µM [inhibitor, partial curve] | 
COC(=O)C1=C(C)N(Cc2ccccc2)[C@]23O[C@](C(=O)OC)(C(=O)N2C1c1ccccc1)C(C(=O)OC)C3C(=O)OC (stereo partly drawn) |  | inactive: -16.2% [at 11.5 µM] and inactive: -3.87% [at 11.5 µM]
CSc1ncc(Cl)c(C(=O)Nc2nnc(SC/C=C/c3ccccc3)s2)n1 | inconclusive: 10 µM [inhibitor, partial curve, poor fit] | 
COc1cc(CNc2ccc(NC(C)=O)cc2)ccc1OCc1ccccc1C | inconclusive: 15.8 µM [inhibitor, partial curve] | 
COC(=O)C1CCN(C(=O)COc2ccc(Cl)cc2)CC1 | inactive | 
Cc1cc2cc(C(c3nnnn3Cc3ccccc3)N3CCc4ccccc43)c(=O)[nH]c2cc1C (stereo not drawn) | active: 15.8 µM | 
